From ChEMBL document CHEMBL4888484, “Replenishing the malaria drug discovery pipeline: Screening and hit evaluation of the MMV Hit Generation Library 1 (HGL1) against asexual blood stage Plasmodium falciparum ,using a nano luciferase reporter read-out” (2022)
Among all 150,000 compounds or so, about 540 (0.36%) showed an effect of 50% or more. Some of the results follow.

test system: Plasmodium falciparum; assay: Primary screen in NF54 nanoGlo assay, in single point, at 2uM, 72h; a lower Z score goes with more inhibition; type: functional, Erythrocyte; settings: timepoint 72 hour

Row | SMILES | % Inhibition [%] | Z score
1 | CCC[C@H](C)NS(=O)(=O)c1cc(OC)ccc1OC | -11 | 1.35
2 | CCC1CN(C(=O)c2ccc(S(N)(=O)=O)c(C)c2)C1 | -5 | 0.96
3 | CCOc1ncc(C(=O)N(C)c2ccc(Cl)cn2)cc1Cl | -10 | 1.14
4 | CN(C)c1ccc(C(=O)NC[C@H]2O[C@@H](CO)[C@@H](O)[C@H]2N(C)CCc2ccccc2)cc1 | 31 | -3.52
5 | Cc1cc(=O)n2nc(C)c(-c3cccc4ccccc34)c2[nH]1 | -10 | 1.64
6 | COCC1(CNC(=O)NCC(=O)N2Cc3ccccc3C2)CCC1 | -1 | 0.1
7 | CC(C)c1nn(C)c(Cl)c1C(=O)N[C@H](C)C(=O)O | -15 | 2.41
8 | O=C(NC1CCCC1)c1c(O)c2cccc3c2n(c1=O)CCC3 | 5 | -0.6
9 | Cc1ccc(N(Cc2cccs2)C(=O)c2cccs2)cc1Cl | 49 | -5.61
10 | Cc1nnc(CN(C)C(=O)COCc2nc3c(C)cccc3[nH]2)o1 | 1 | -0.14
11 | CCN(CC(C)(C)O)S(=O)(=O)c1ccc(F)cc1Br | -7 | 0.91
12 | Cc1cnc(C(C)N2CCCC(N3CCCC3)C2)o1 (stereo not given) | -3 | 0.26
13 | COc1ccc(C2CN(S(=O)(=O)c3ccccc3)CC2C(=O)NCC(C)C)c(OC)c1 (stereo not given) | -4 | 0.77
14 | COc1ccc([C@H]2OCC[C@@H]2NC(=O)Nc2ccn(-c3ccc(F)cn3)n2)cn1 | 2 | -0.28
15 | COC(C)(C)CC(C)NC(=O)N(C)C(C)c1ccco1 (stereo not given) | 10 | -1.39
16 | CCOC(=O)N1CCN(C(=O)CN2C(=O)NC3(CCCCC3C)C2=O)CC1 (stereo not given) | -3 | 0.36
17 | N#Cc1ccccc1COc1cccc(C(=O)NC2(C#N)CCCC2)c1 | 1 | -0.06
18 | O=C(NCc1nnc2n1CCOC2)NC[C@@H]1C[C@H](c2ccccc2)CO1 | -1 | 0.14
19 | CC(C)S(=O)(=O)CC(=O)N1C2CCC1CC(CC(F)(F)F)C2 (stereo not given) | 6 | -1.23
20 | Cc1nc2c(C)cccc2cc1C(=O)N1CCC(Cc2nncn2C)CC1 | 4 | -0.78
21 | C[C@H](NC(=O)c1ccc2scnc2c1)C1=CCCCC1 | 3 | -0.57
22 | O=C(CNC(=O)c1cnccn1)NCCc1c[nH]c2ccc(F)cc12 | -5 | 0.67

Row | SMILES | % Inhibition [%] | Z score
23 | CCc1csc(-n2cc(C(=O)N3[C@H](C)CCC[C@@H]3C)cn2)n1 | -19 | 2.04
24 | COc1ccc(C(=O)NC2CC2)cc1OC1CCN(Cc2ccc(F)cc2F)CC1 | -8 | 1.57
25 | CN1CCCN(C)C2(CCN(C(=O)c3ccc(F)c(Cl)c3)CC2)C1 | -21 | 2.62
26 | Cn1ccc(C(NC(=O)N2CCC(F)(CO)C2)c2ccc(Cl)cc2)n1 (stereo not given) | -6 | 1.07
27 | COC[C@H]1CN(C(=O)c2cccnc2Nc2ccccc2F)CCO1 | -13 | 1.65
28 | Cc1ccc(NC(=O)CC(C)(C)C)nc1 | -16 | 1.43
29 | Cn1nccc1S(=O)(=O)N1CCC[C@H](CC(N)=O)CC1 | -3 | 0.39
30 | CCCNC(=O)c1ccc(-c2c(-c3ccc(C)cc3)ncn2C2CCCCC2)o1 | -2 | 0.32
31 | NC(=O)C1CCN(c2nc3nccc(-c4cccc5ccccc45)c3c(=O)[nH]2)CC1 | -3 | 0.45
32 | CC(=O)N1CCn2c(nnc2[C@@H]2CCCN2Cc2ccc(F)cc2F)C1 | -12 | 1.72
33 | CCCn1ncc(CN2CCC3(CC2)C[C@@H](c2ccccc2)C(=O)N(C)C3)c1C | -5 | 0.78
34 | COCC(COC)NC(=O)N1CCC2(C=Cc3ccccc3O2)CC1 | -3 | 0.45
35 | Cc1nnc(CN2CCC[C@H](CNC(=O)c3ccoc3)C2)s1 | -7 | 1.39
36 | CN(Cc1ncc[nH]1)c1nccn(C)c1=O | 15 | -1.95
37 | O=C(NCC1(CO)CC1)C1CCCCC1c1nc2ccccc2s1 (stereo not given) | -13 | 2.48
38 | CCN1CC[C@H]2OCCN(CC(C)=Cc3ccccc3)[C@H]2C1 | -8 | 1.59
39 | COc1ccc(S(=O)(=O)Nc2ccccc2C(=O)NCc2ccco2)cc1 | 3 | -0.38
40 | Cn1c(CN2CCC(O)CC2)nnc1[C@H]1CCCN(c2nccs2)C1 | -1 | 0.13
41 | O=C(NCCc1cccs1)c1cc(Cc2cccc3ccccc23)no1 | 19 | -2.46
42 | O=C(CN1CCN(c2ccccc2F)C1=O)Nc1nccs1 | -5 | 0.59
43 | CCC(=O)N1CCc2ccc(OCc3ccc(C(=O)NCC4CC4)o3)cc2[C@@H]1c1ccc(F)cc1 | -9 | 1.09
44 | CCC[C@@]1(C2CCNCC2)NC(=O)N(CCc2ccc(C#N)cc2)C1=O | 13 | -1.65

Row | SMILES | % Inhibition [%] | Z score
45 | COc1ccc(C2=C(C)C(N3CCN(Cc4ccc5c(c4)OCO5)CC3)=NS2(=O)=O)cc1 | -15 | 2.24
46 | O=C(c1sccc1Cl)N1CC2(CCC2)[C@@H]1C1CCOCC1 | -2 | 0.42
47 | CCCN(CCC)S(=O)(=O)NCCc1nc2c(s1)COCC2 | -16 | 2.44
48 | COCCC(=O)Nc1ncnn1C(C)(C)C | -6 | 0.67
49 | COc1ncccc1CNC(=O)c1ccnc(OC2CCOCC2)c1 | -8 | 1.44
50 | O=C1NC(=O)[C@H](CCC(=O)N2CCN(C(=O)c3ccccc3)CC2)N1 | -21 | 4
51 | Cc1cccc(OC[C@]2(CNC(=O)c3ccc(F)cc3)C[C@@H](O)[C@@H](O)C2)n1 | -6 | 0.77
52 | CCOc1cc(N(CC)Cc2ccccn2)ncn1 | -9 | 1.29
53 | CCc1nnsc1C(=O)N1C[C@H](C)OC(C)(C)C1 | -3 | 0.49
54 | CN(C)c1c(Cl)cnn(-c2ccccc2)c1=O | -1 | 0.24
55 | CNS(=O)(=O)c1cc(C(=O)N2CCc3ccc(C)cc32)c(C)o1 | -7 | 0.7
56 | CCC(=O)Nc1ccc2c(c1)CN(C)C(=O)N2 | -3 | 0.26
57 | O=C(Nc1ccnn1Cc1ccc(Cl)c(F)c1)[C@H]1CCS(=O)(=O)C1 | 6 | -0.83
58 | NC(=O)[C@@H]1CN(C(=O)CN2CCN(Cc3ccccc3)CC2)CCO1 | 8 | -1.59
59 | Cn1nccc1C(=O)N1CC[C@@](F)(c2cccc(C(F)(F)F)c2)C1 | 3 | -0.58
60 | CCCn1nccc1C(=O)N1CCC[C@H](C(=O)c2cccc(OC(C)C)c2)C1 | -13 | 1.82
61 | CCc1c[nH]c2ncnc(NC[C@H](C)N(C)C)c12 | -6 | 1.06
62 | O=S(=O)(Nc1ccc(Br)cc1)C1CCCCC1O (stereo not given) | -2 | 0.22
63 | Cc1ccnn1CCNC(=O)CCc1nc2cc(Br)cnc2[nH]1 | 31 | -3.67
64 | O=c1[nH]c2ccccc2c(O)c1C(c1cccnc1)c1c(O)c2ccccc2[nH]c1=O | -6 | 1.05
65 | COCc1c(C(=O)NCCN2CCCC2)cnn1-c1ncc2c(n1)-c1ccccc1CCC2 | -1 | 0.18
66 | CCN(Cc1ccccc1)C(=O)c1cc(NS(=O)(=O)c2cccs2)ccc1N1CCNCC1 | -14 | 1.7

Row | SMILES | % Inhibition [%] | Z score
67 | COC(=O)c1cccc([C@H]2CC(=O)Nc3c2cnn3CC2CCCCC2)n1 | -8 | 0.75
68 | O=C(C1CCN(c2cncnc2N2CCCCC2)CC1)N1CCOCC1 | -3 | 0.63
69 | CC(C)(C)OC(=O)NC1(C(=O)O)CCC(C(F)F)CC1 (stereo not given) | -5 | 0.94
70 | O=S1(=O)CC(CCNc2ncnc3sccc23)C1 | -5 | 0.86
71 | CCCc1cc(C(=O)N2CCC(c3nc(C(C)C)no3)CC2)[nH]n1 | -9 | 1.13
72 | CC1(C(=O)N[C@@H]2C[C@@H]3CC(CO)C[C@@H]32)CC2CCC1C2 (stereo not given in full) | 7 | -1.45
73 | COc1ccc(CN2C(=O)COC[C@H]2C(=O)N2CCCCC2)c(OC)c1 | -2 | 0.19
74 | CC(C)c1nn(C)cc1-c1noc(C2(C(F)(F)F)CCC2)n1 | -4 | 0.73
75 | COc1ncnc(C)c1-c1ccc(C(=O)N2Cc3nc(C)[nH]c(=O)c3C2)cc1 | -8 | 0.81
76 | O=C(NCCc1ccc(F)cc1F)N[C@H]1CCOC2(CCCC2)C1 | 6 | -0.76
77 | C=C(C)COc1ccccc1CN[C@@H](CC)c1nc(C)no1 | -10 | 1.37
78 | COc1cccc(NC(=O)Cc2nnc(-c3sccc3C)o2)c1 | -3 | 0.28
79 | Cc1ccc(Oc2nc(N3CCC(C)CC3)nc3c2CN(C(=O)Cc2ccccc2)CC3)cc1 | -2 | 0.28
80 | CC(CCC1CC1)NC(=O)[C@H]1CCC(=O)N1 (stereo not given in full) | 0 | 0.03
81 | COc1ccc(N2COC3c4cccc5cccc(c45)C32)cc1 (stereo not given) | 5 | -0.86
82 | C#CCOC[C@@H](O)CN(Cc1c(C)nn(-c2ccccc2)c1Oc1cccc(F)c1)CC1CC1 | -6 | 0.94
83 | C=CCN(Cc1ccccc1)S(=O)(=O)C(C)(C)C | -11 | 1.83
84 | Cn1cccc1C(=O)CN1C(=O)NC2(CCCCCCC2)C1=O | -4 | 0.63
85 | O=C(O)COc1ccccc1CN1CCO[C@H]2CCCC[C@@H]21 | -10 | 1.37
